In the supplement of paper PMC3334620:
Whole data set: some 33,000 sequences, median “E-score (-0.5 to 0.5)” near -0.012, cut for the highest 2% near 0.27. This is one part of the list.

Target: T1, Vhr1 (UniProt P40522)
T1 sequence: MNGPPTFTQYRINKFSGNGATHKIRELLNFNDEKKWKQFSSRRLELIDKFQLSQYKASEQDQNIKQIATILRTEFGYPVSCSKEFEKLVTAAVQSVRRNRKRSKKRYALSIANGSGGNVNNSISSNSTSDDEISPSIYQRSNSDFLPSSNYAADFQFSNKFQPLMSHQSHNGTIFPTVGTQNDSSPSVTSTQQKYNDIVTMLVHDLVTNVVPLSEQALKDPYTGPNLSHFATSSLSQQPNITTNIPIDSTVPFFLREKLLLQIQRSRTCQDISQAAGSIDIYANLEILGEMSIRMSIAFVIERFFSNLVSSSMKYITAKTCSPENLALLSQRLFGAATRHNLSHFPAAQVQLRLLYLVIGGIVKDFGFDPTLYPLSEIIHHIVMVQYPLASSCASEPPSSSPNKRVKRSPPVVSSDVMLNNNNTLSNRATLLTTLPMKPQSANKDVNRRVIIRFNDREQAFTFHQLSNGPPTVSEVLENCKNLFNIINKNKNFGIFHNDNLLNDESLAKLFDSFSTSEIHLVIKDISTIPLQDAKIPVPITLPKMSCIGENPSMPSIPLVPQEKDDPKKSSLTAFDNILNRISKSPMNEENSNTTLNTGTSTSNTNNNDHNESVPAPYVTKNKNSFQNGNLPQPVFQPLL
Test: PBM E-score (8-mer binding enrichment) (E-score (-0.5 to 0.5)); higher = stronger / more preferred TF binding; most listed sequences are background and not binding sites
Conditions: protein concentration: 200 nM; construct: GST-full length
Procedure: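 Universal 'all 10-mer' protein binding microarrays (Agilent AMADID 015681) probed with GST-tagged S. cerevisiae TFs (full-length or DBD) made by in vitro transcription/translation (PURExpress), about 100-200 nM. Bound TF was detected with fluorescent anti-GST. Each ungapped 8-mer (which stands for itself and its reverse complement) is scored by the PBM enrichment score (E-score), a modified Wilcoxon-Mann-Whitney statistic from -0.5 to +0.5, computed with the Universal PBM Analysis Suite. Scale: above 0.35 generally sequence-specific binding.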

Sequence	PBM E-score
ACACAATG	0.267
AGTAACGG	-0.0546
GGGATCAC	-0.0964
CGGCCCTC	-0.148
CCGATAGC	-0.166
AGGAGTAT	0.0083
AGATAGCC	-0.135
CGCAGACC	-0.0379
ATCTTCTG	-0.113
CCCGACGC	-0.0991
AAGAAGAC	-0.0464
CAGAATTC	-0.152
AACCCACA	0.168
CCCGATCA	-0.112
CACAGTGG	-0.0197
GGACCGAC	0.097
AACATGGA	-0.00024
GGGATAGA	-0.128
GATGTGCC	-0.00921
GACCTGGC	-0.19
GGTGTTAC	0.162
AACACGAC	0.0199

Sequence	PBM E-score
AATCTCAA	0.0312
CCACCTCA	0.0419
ACTTAGCA	-0.22
GAGCTTCC	0.108
CACCGCAA	0.186
GCTCCTCC	-0.19
AGACAAAA	-0.0898
ATGCTGGA	-0.001
GCACTCGC	0.0364
GCAGCGGA	0.0598
AAGTGACA	0.0587
GCTAGCAC	-0.118
TACCCATA	0.166
GGGTGTGA	0.135
CCTCCGCA	-0.114
CATCCATA	0.125
CACAGGAA	0.0584
ACAATCGG	-0.081
GCATTGAC	-0.0613
GCGTGCGA	0.00545
GGAGGAAA	-0.015
GTGCTGCA	0.0908

Sequence	PBM E-score
CCCGGAGA	0.151
CGTGAAAA	-0.0731
GCTGACGA	0.0793
ATCAGGGC	-0.139
CTTCATCA	-0.102
CGATAGGC	-0.201
AGGGACTA	0.021
ATGGTGAC	0.26
CAGAACTC	0.0112
AATGATGG	0.205
AATTCCCG	-0.2
CAAGAATG	-0.0889
GATAACAC	0.0381
AGGTATCC	0.0545
ACATACAC	0.18
CGTTTACC	-0.0172
GATCCAAC	-0.0773
CTTACAAC	-0.164
CTGAGCAG	-0.00712
AACGCCGC	0.0464
CCCTATAG	-0.041
GTAGTAAC	-0.0181

Sequence	PBM E-score
CACAAGGA	0.232
ACTGGGGG	-0.254
AATTGCGG	0.0349
GTTCGAGA	-0.103
ATAAAGCC	-0.101
AACTTCCT	-0.0302
CAGTAGAA	0.0147
CGGGTGAC	0.143
GCGACGCC	0.205
AGAATATG	0.0849
GCCGTCAC	-0.0509
CTATTCTA	0.0124
GCTTTAGA	-0.213
AGGATATA	0.147
CCAGTGTA	0.0957
ACAGCATG	0.153
AATAGCCT	0.0684
TCAGTTAA	-0.108
ACTGCATG	0.193
CAAGCAAA	0.026
